The whole screen tested about 7,900 compounds, of which about 400 (5.1%) showed an effect of 50% or more. Some of the results follow.
molecular target: Parkinson's disease protein 7 (PARK7/DJ1) (human, UniProt Q99497); assay: primary screen, percent inhibition; read as competition with a fluorescent probe by fluorescence polarization; higher = more effect of the substance; conditions: 100 µM
Outline: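 Fluorescence-polarization probe displacement (JYQ-107, 20 nM final, 2 h) after 2 h preincubation of PARK7 (0.2 μM final) with each fragment at 100 μM final. Read-out ex/em 480/520 nm; remaining activity derived from FP signal loss relative to reference controls.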

Sequence of Parkinson's disease protein 7 (PARK7/DJ1) (Q99497 whole entry, looked up, the tested form may be a part): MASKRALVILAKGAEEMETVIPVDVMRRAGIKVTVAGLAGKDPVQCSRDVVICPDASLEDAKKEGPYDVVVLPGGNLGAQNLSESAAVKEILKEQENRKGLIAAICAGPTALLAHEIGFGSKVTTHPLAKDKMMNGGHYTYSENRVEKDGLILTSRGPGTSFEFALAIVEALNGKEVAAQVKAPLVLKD

Compound | Inhibition %
CCOc1ccc(C)cc1S(=O)(=O)n1cc(C)nc1CC | 5.56%
C=CC(=O)N1CCCC1c1ccccc1C (centres unmarked) | 6.94%
CCC(C)c1ccc(C(=O)Cn2cnc(C#N)n2)cc1 (centres unmarked) | 1.54%
C=CC(=O)N[C@@H]1CCC(=O)N[C@H]1c1cnn(CC)c1 | 12.3%
O=C(CCl)Nc1ccc([N+](=O)[O-])cc1[N+](=O)[O-] | 21.1%
CC(C)NC(=O)C(C#N)=Cc1cccnc1 | 7.19%
O=c1oc2ccccc2n1CCS(=O)(=O)F | 13.1%
C=CC(=O)N1CCN(c2cccc(C)n2)CC1C (centres unmarked) | 12%
CSc1ccccc1NC(=O)CN(C)C(=O)CCl | 34.6%
O=C(CCl)NNC(=O)C1CC1 | 1.1%
O=C1CCC(=O)N1CCC(=O)N1CCCC2CCCCC21 (centres unmarked) | 7.62%
COC(=O)C1CCN(c2ccnc(C#N)c2)CC1 | 6.7%
O=C(O)CC1OB(O)c2ccccc21 (centres unmarked) | 0.686%
Cc1ccc(B2OC(C)(C)C(C)(C)O2)cc1 | 2.94%
CC(C)CC(=O)NNS(=O)(=O)c1ccc(S(=O)(=O)F)cc1 | 30.6%
Nn1c(SC2CCOC2=O)nnc1-c1cccs1 (centres unmarked) | 16.5%
C=CCNC(=O)C(C#N)=Cc1cc(F)ccc1F | 6.92%
CC(=O)NCc1ccc(S(=O)(=O)NC(=O)CCl)cc1 | 3.06%
CC(C)CC1C(=O)NCCN1C(=O)c1cnc(C#N)s1 (centres unmarked) | -2.05%
O=C1CC(CC(=O)N2CC(C3CCCCC3)C2)CO1 (centres unmarked) | 10.3%
C=CC(=O)NC1CCOC(C)C1 (centres unmarked) | 4.59%
COc1cccc(C2CCCN2C(=O)n2ccnc2)c1 (centres unmarked) | 0.87%
Cc1cccc(C#N)c1SC(=O)N(C)C | 8.13%
Cc1ccc(N(C(=O)CCl)C2C=CS(=O)(=O)C2)cc1 (centres unmarked) | 8.7%
CN(Cc1ccc(-c2ccc(Cl)cc2)o1)C(=O)CCl | 79.2%
C=CC(=O)NCC(=O)N1CCCCC1 | 5.67%

Compound | Inhibition %
N#Cc1cncc(NCC2CC(c3ccccc3)C2)n1 (centres unmarked) | 3.91%
Cc1ncncc1B1OC(C)(C)C(C)(C)O1 | 9.27%
CNC1CCN(C(=O)C=Cc2c(C)nn(C)c2Cl)CC1 | 4.77%
CN(Cc1ccsc1)C(=O)Cn1cnc(C#N)n1 | 5.08%
O=S(=O)(F)CCn1cnc2ccccc21 | 11.8%
CC(=O)N1CCc2cc(NC(=O)CCl)ccc21 | 3.54%
Cc1nc2sccn2c(=O)c1CCCl | 3.24%
O=C(CCl)NNC(=O)c1cccc(Cl)c1 | 13.8%
C=CC(=O)N1CCC(F)(c2ccccc2)CC1 | 5.18%
COc1c(S(=O)(=O)n2ccnc2)ccc(Cl)c1Cl | 3.28%
CN(C)C=CC(=O)c1cc2ccccc2o1 | 0.589%
Cc1cccc(CC(=O)Nc2nc3n(c2C#N)CCS3)c1 | 2.19%
COc1cc(C)c(C(C)NC(=O)CCl)cc1OC (centres unmarked) | 3.84%
C=CC(=O)NC1CCN(C)C(=O)C1 (centres unmarked) | 3.98%
O=C(CCl)Nc1nc(-c2ccc(F)c(F)c2)cs1 | 2.41%
N#Cc1ccc(NC2CCCC2CO)cn1 (centres unmarked) | 7.16%
CCNC(=O)CN(C#N)c1ccc(F)cc1 | 4.15%
Cc1c(C=CC(=O)c2cccc(O)c2)cc(C#N)n1C | 8.99%
CCC(C)C(C)Nc1nccnc1C#N (centres unmarked) | 17.8%
OB(O)c1ccccc1OC1CCCCC1 | 10%
COC1(C)CN(c2nc(C#N)c(Cl)s2)C1 | 9.88%
C=CC(=O)N(C)C1CCC(SC)C1 (centres unmarked) | 5.07%
CN(C)c1ncc(B2OC(C)(C)C(C)(C)O2)cn1 | 2.49%
CN(C(=O)Nc1cccc(C2OCCO2)c1)C1CCOC1 (centres unmarked) | 6.22%
CC1CN(C(=O)c2c[nH]c(C#N)c2)C1 | 12.5%
CCOc1cc(C)c(Cl)cc1S(=O)(=O)n1ccc(C)n1 | 10.4%

Compound | Inhibition %
COc1ccc(C(C)C)cc1S(=O)(=O)n1ccnc1C | 0.397%
C=CC(=O)Nc1ccc(OC)c(OC)c1 | 22.9%
CC1Cc2ccccc2N1C(=O)CC1C=CS(=O)(=O)C1 (centres unmarked) | 7.7%
C=CC(=O)N(C)Cc1cnc(N(C)C)nc1 | 5.02%
N#Cc1cnn(Cc2ccc(S(=O)(=O)F)cc2)c1 | 7.21%
N#Cc1ccc(NC(=O)CN2C(=O)CCC2=O)cc1 | 6.11%
C[C@@H](O)CNC(=O)CCn1c(S)nc2ccccc2c1=O | 3.61%
Cc1cc(C)n(S(=O)(=O)c2ccc(Cl)cc2)n1 | 2.13%
O=C(O)[C@H]1CCCN1C(=O)C=Cc1ccccc1Cl | 4.49%
Cc1[nH]ncc1C(=O)N1CCC(C2NC(=O)C2(C)C)CC1 (centres unmarked) | 3.69%
C=CC(=O)N1CCCC(N(C)S(C)(=O)=O)C1 (centres unmarked) | 9.78%
O=C(CCl)N(C1CCCC1)C1CC1 | 51.2%
C=CC(=O)N1C[C@H](OC)[C@H](OC)C1 | 6.32%
COC(=O)C1OC12CCOC2 (centres unmarked) | 5.75%
CC1(C)OB(c2ccc(OCCN3CCCC3)cc2)OC1(C)C.Cl | 8.54%
CCn1nc(C)c(B2OC(C)(C)C(C)(C)O2)c1C | 5.39%
O=S1(=O)C=CCCC1 | 10.4%
CC(C)(C)[C@H]1OCC[C@@H]1CNC(=O)c1ccc(C#N)[nH]1 | 7.78%
O=C(CCl)Nc1ccc([N+](=O)[O-])cc1 | 32.8%
O=c1c2ccccc2nc(S)n1C1CCS(=O)(=O)C1 (centres unmarked) | 2.61%
CCn1nc2c(cc1=O)CN(C1CC(C)OC1=O)CC2 (centres unmarked) | 61.4%
Cc1cc(B2OC(C)(C)C(C)(C)O2)n(C)n1 | 18.2%
C=CC(=O)N1CCCC1c1cccc2c1OCCO2 (centres unmarked) | 4.1%
C=CC(=O)N1CCC(CC)C1C (centres unmarked) | 8.25%
Br.N#CC(=Cc1ccc(O)cc1)c1nnc2n1CCCCC2 | 9.92%
